Data published in PubChem BioAssay AID360 (National Center for Advancing Translational Sciences (NCATS), 2006).
Screen size: about 48,000 compounds; about 550 (1.1%) were called active. Roughly 4% stayed inconclusive and do not appear here. Cut-off read from the data, not from the text of the source: active = potency below about 15 µM; inconclusive = mostly about 16 µM to 33 µM; inactive = weaker than that. The list shows a part of the results.

Target: Lysosomal acid glucosylceramidase (Homo sapiens) (UniProt P04062)
Chain of UniProt P04062 (P04062 whole entry, looked up): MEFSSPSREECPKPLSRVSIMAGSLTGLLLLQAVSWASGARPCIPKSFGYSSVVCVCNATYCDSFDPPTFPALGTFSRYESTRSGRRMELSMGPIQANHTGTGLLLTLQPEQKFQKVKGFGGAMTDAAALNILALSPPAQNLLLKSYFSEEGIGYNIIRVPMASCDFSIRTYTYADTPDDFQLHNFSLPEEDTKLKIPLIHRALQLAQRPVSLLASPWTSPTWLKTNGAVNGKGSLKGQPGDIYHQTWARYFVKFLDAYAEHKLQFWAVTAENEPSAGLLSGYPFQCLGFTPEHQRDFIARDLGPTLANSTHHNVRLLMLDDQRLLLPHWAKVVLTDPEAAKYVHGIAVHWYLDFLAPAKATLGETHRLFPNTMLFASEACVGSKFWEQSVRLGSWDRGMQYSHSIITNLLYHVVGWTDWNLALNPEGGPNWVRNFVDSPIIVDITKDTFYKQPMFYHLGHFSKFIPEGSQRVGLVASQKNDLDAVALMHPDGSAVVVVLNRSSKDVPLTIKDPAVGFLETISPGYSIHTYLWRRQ
Test: Glucocerebrosidase;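 note: the screen sought inhibitors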
Conditions: purified enzyme, resorufin glucoside fluorescence (screen aimed at inhibitors), 20 min
Summary of the method: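 Normal human glucocerebrosidase (0.2 nM final) was assayed with resorufin β-D-glucopyranoside (30 uM final) in 50mM citric acid/KH2PO4, 10mM sodium taurocholate, 0.01% tween-20, pH 5.9. Compounds were titrated; fluorescence (Ex 548, Em 600) read after 20 min at RT.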
Potency is the fitted concentration of half-maximal effect.

Potency, inactive:
COc1ccc(CCNC(=O)c2noc3c2CCCC3)cc1OC > 76.9 µM
Cc1cccc(CSc2nnc(-c3ccccn3)n2N)c1 > 76.9 µM
O=C(COc1ccccc1Cl)N1CCCC1 > 76.9 µM
O=C(NCCN1CCN(c2ccccc2)CC1)c1cccn2c(=O)c3ccccc3nc12 > 76.9 µM
Cc1cc(C)c2nc(C(F)(F)F)nc(NCCCN3CCCC3=O)c2c1 > 76.9 µM
O=C1C=C(c2ccccc2)C(O)(c2ccccc2)C1 (stereo not given) > 76.9 µM
COc1ccc(Nc2nc(C)c3ccccc3n2)cc1 > 76.9 µM
O=C(CCCOc1ccccc1)N1CCN(c2ccccn2)CC1 > 76.9 µM
COc1ccc(N(C(=O)COc2ccccc2)C2C=CS(=O)(=O)C2)cc1 (stereo not given) > 76.9 µM
Cc1c(N=Cc2nc3ccccc3[nH]2)c(=O)n(-c2ccccc2)n1C > 76.9 µM
CCOC(=O)C1CCN(Cc2nc(-c3ccc(OC)c(OC)c3)no2)CC1 > 76.9 µM
CN(C)c1nc(OCCNC(=O)COc2ccc(Cl)cc2Cl)nc(N2CCOCC2)n1 > 76.9 µM
Cc1cc(=O)n2nc(N3CCCC(C(=O)N4CCOCC4)C3)sc2n1 (stereo not given) > 76.9 µM
CCN(CC)C(=O)CN1C(=O)C2(OCC(C)(c3ccccc3)CO2)c2ccccc21 (stereo not given) > 76.9 µM
Cc1cccc(N2CCN(C(=O)c3ccc(N4CCCC4=O)cc3)CC2C)c1 (stereo not given) > 76.9 µM
CCOC(=O)c1c(C)[nH]c(C(=O)COC(=O)c2ccc(N3CCCC3=O)cc2)c1C > 76.9 µM
Cc1ccc(Cl)cc1N1CCN(C(=O)CN2C(=O)c3cccc4cccc2c34)CC1 > 76.9 µM
O=C(NCc1ccccc1)C1CCN(S(=O)(=O)N2CCCCCC2)CC1 > 76.9 µM
CCCn1c(SCC(=O)Nc2cccc(C)n2)nnc1-c1ccco1 > 76.9 µM
Cc1nnc(SCC(=O)NCCc2ccccc2)[nH]c1=O > 76.9 µM
Cc1oc(-c2ccc(Cl)cc2)nc1CN1CCCC(C(=O)NCc2cccnc2)C1 (stereo not given) > 76.9 µM
COc1cc(NC(=O)c2cc(-c3ccco3)on2)c(OC)cc1Cl > 76.9 µM
COc1ccc(-n2c(COc3cccc(C)c3)nnc2SCC(=O)NCc2ccco2)cc1 > 76.9 µM
CC1=Nc2ccccc2NC(=O)C1Sc1nnc(C)s1 (stereo not given) > 76.9 µM
c1ccn2c(SCc3ccc4c(c3)OCO4)nnc2c1 > 76.9 µM
COc1ccccc1NC(=O)CC1C(=O)Nc2c1c(=O)n(C)c(=O)n2C (stereo not given) > 76.9 µM
CCOC(=O)c1cc(-c2ccco2)nc2c1c(C)nn2CCC#N > 76.9 µM
CC(C)CN1C(=O)NC(NC(=O)c2cccs2)(C(F)(F)F)C1=O (stereo not given) > 76.9 µM
O=C(c1ccco1)N1CCN(C(=O)C2CCCc3c2[nH]c2ccc(Cl)cc32)CC1 (stereo not given) > 76.9 µM
CCOC(=O)c1cc2sccc2n1CC(=O)OC(C)C > 76.9 µM
Cc1cnc(-c2nnc(N(C)C(=O)c3ccncc3)s2)cn1 > 76.9 µM
CCOC(=O)Cn1nc(-c2ccc(Cl)cc2)cc1N > 76.9 µM
CCOC(=O)/C(C(C)=O)=C1\OC(=O)c2ccccc21 > 76.9 µM
CC(C)(C)c1cc(CNC2CS(=O)(=O)C[C@@H]2O)cc(C(C)(C)C)c1O (stereo not given in full)
O=C(C1CCN(c2nnnn2-c2ccccc2)CC1)N1CCN(c2ccccc2)CC1 > 76.9 µM
CN(C)S(=O)(=O)Nc1ccccc1C(N)=O > 76.9 µM
CCOc1ccc2[nH]c(=O)c(C(c3nnnn3CCOC)N3CCOCC3)cc2c1 (stereo not given) > 76.9 µM
COc1ccccc1N1CCN(S(=O)(=O)c2c(C)ccc3nsnc23)CC1 > 76.9 µM
CN1CCC(N(C)CC(=O)Nc2cccc(Oc3ccccc3)c2)CC1 > 76.9 µM
COc1ccc(C2C(C(=O)N3CCOCC3)CCC(=O)N2c2cc(OC)c(OC)c(OC)c2)cc1 (stereo not given) > 76.9 µM
CN(C)S(=O)(=O)N(CC(=O)Nc1ccccc1C(F)(F)F)c1ccccc1 > 76.9 µM
CNc1oc(-c2ccc(OCc3ccccc3)cc2)nc1C#N > 76.9 µM
O=C(CSc1nc2ccccc2o1)c1cc2ccccc2oc1=O > 76.9 µM
CCN(CC)CCN1C(=O)c2oc3ccccc3c(=O)c2C1c1ccc(F)cc1 (stereo not given) > 76.9 µM
CCOC(=O)c1[nH]c2ccccc2c1NC(=O)C1CCCCC1 > 76.9 µM
CN(c1ccccc1C(=O)NCc1ccccn1)S(C)(=O)=O > 76.9 µM
CCOc1ccccc1NC(=O)CSc1nnc2c(CC)c(C)nc(N)n12 > 76.9 µM
O=C(COC(=O)C1COc2ccccc2O1)Nc1ccc2c(c1)CCC2 (stereo not given) > 76.9 µM
O=S1(=O)C=C(Sc2nc3cc(Cl)ccc3o2)c2ccccc21
COCC(=O)Nc1cc(OC)c(Cl)cc1OC > 76.9 µM
Cc1nc(N2CCN(c3ncccn3)CC2)c2oc3ccccc3c2n1
CC(=O)Nc1c(OC(C)=O)ccc2c(C)cc(=O)oc12 > 76.9 µM
O=C(Nn1cnnc1)c1cc2c(s1)CCCCC2 > 76.9 µM
C=CCSc1ncccc1C(=O)NCc1ccccc1 > 76.9 µM
COc1ccc(Cl)cc1C(=O)NCC(c1ccco1)N1CCCC1 (stereo not given) > 76.9 µM
CCCCC(=O)Nc1ccc2oc(-c3ccncc3)nc2c1 > 76.9 µM
CCCCn1c(SCC(=O)NC(C)(C)C)nnc1-c1ccco1 > 76.9 µM
Cc1nc(Nc2ccc3c(c2)OCCO3)c2nnn(Cc3ccccc3Cl)c2n1 > 76.9 µM
Cc1nn(-c2ccc(Cl)cc2)c(N)c1C(O)(CSc1nccn1C)C(F)(F)F (stereo not given) > 76.9 µM
CCN(CC)c1ccc(NC(=O)c2[nH]c(C)c(C(C)=O)c2C)c(C)c1 > 76.9 µM
O=c1cc(CN2CCN(c3ccccc3)CC2)c2c(ccc3ccccc32)o1 > 76.9 µM
O=C(Nn1nnnc1Nc1ccccc1)C12CC3CC(CC(C3)C1)C2
O=C(O)c1cccc(NC(=O)c2cccc(NC(=O)C3CCCO3)c2)c1 (stereo not given) > 76.9 µM
CC(=O)c1c(C)nc(C)nc1NC(=O)C(C)C > 76.9 µM
O=C(CSc1nnnn1-c1ccc2c(c1)CCC2)Nc1ccc2c(c1)OCCO2 > 76.9 µM
COC(=O)c1ccc2c(=O)n(CCN3CCOCC3)c(SCC(=O)c3ccccc3)nc2c1 > 76.9 µM
CCC(c1nnnn1Cc1ccc(F)cc1)N(CCCO)Cc1cc2cc3c(cc2[nH]c1=O)OCO3 (stereo not given) > 76.9 µM
CC(C(=O)NCC1CCCO1)n1cccc1C(=O)c1ccccc1 (stereo not given) > 76.9 µM
Cc1ccccc1NC(=O)c1cc(N)ccc1N1CCCCC1 > 76.9 µM
COc1ccccc1N1CCN(C(=O)CSc2nc(C)c(Cc3ccccc3)c(=O)[nH]2)CC1 > 76.9 µM
COc1cccc(C2C(C#N)=C(N)OC3=C2C(=O)CC(c2ccco2)C3)c1OCc1ccc(F)cc1 (stereo not given) > 76.9 µM
CCCNS(=O)(=O)c1ccc(CCC(=O)NCC2CCCO2)cc1 (stereo not given) > 76.9 µM
Cn1c(SCC(=O)Nc2ccccc2-c2ccccc2)nnc1-c1ccco1 > 76.9 µM
CC(=O)Cc1nsc(NC(=O)c2ccc(Br)o2)n1 > 76.9 µM
CC1Cc2ccccc2N1C(=O)CSc1nnnn1Cc1ccccc1 (stereo not given) > 76.9 µM
CC(=O)Nc1ccc(S(=O)(=O)Nc2ccc(S(=O)(=O)N3CCCCCC3)cc2)cc1 > 76.9 µM
O=C(CNS(=O)(=O)c1ccc(Br)s1)NCc1ccc2c(c1)OCO2 > 76.9 µM
COc1ccc(C(O)CNc2ccc(C)cc2)cc1 (stereo not given) > 76.9 µM
CCOc1ccc(NC(=O)CCNc2c(N3CCCC3)c(=O)c2=O)cc1 > 76.9 µM
Cc1c2c(n3c(nc4ccccc43)c1C#N)N(Cc1ccccn1)CC2 > 76.9 µM
Cc1nc(NCC2CCCO2)nc2c1C(=O)CC(C)C2 (stereo not given) > 76.9 µM
CCOC(=O)N1CCC(NC(=O)C2CCN(S(=O)(=O)c3cnc[nH]3)CC2)CC1 > 76.9 µM
CCc1nc(Sc2nc(C)cc(C)n2)c2oc3ccccc3c2n1 > 76.9 µM
O=C(O)c1cc2c(ccc3ccccc32)[nH]1 > 76.9 µM
O=C(Nc1ccc2c(c1)OCCO2)c1ccc(Cl)c(S(=O)(=O)N2CCOCC2)c1 > 76.9 µM
N#C/C(=C(\O)c1ccco1)c1ccccn1 > 76.9 µM
CCOC(=O)N1CCN(S(=O)(=O)c2cc(Br)cc3c2N(C(C)=O)C(C)C3)CC1 (stereo not given) > 76.9 µM
COCc1nnc(NC(=O)CS(=O)(=O)Cc2ccccc2)s1 > 76.9 µM
COc1cccc(NC(=O)CCCn2c(=O)[nH]c3ccccc3c2=O)c1 > 76.9 µM
COc1ccc(N(C)S(=O)(=O)c2cccc(C(=O)NC3=NCCS3)c2)cc1 > 76.9 µM
